The text below walks through data of PMC4336329 (PLoS ONE, 2015).

Out of some 310,000 compounds screened, about 2,200 (0.71%) showed an effect of 50% or more. The effect is printed as a negative number. The list shows a part of the results.

Chain of human ether-à-go-go-related gene (hERG) potassium channel (Q12809 whole entry, looked up): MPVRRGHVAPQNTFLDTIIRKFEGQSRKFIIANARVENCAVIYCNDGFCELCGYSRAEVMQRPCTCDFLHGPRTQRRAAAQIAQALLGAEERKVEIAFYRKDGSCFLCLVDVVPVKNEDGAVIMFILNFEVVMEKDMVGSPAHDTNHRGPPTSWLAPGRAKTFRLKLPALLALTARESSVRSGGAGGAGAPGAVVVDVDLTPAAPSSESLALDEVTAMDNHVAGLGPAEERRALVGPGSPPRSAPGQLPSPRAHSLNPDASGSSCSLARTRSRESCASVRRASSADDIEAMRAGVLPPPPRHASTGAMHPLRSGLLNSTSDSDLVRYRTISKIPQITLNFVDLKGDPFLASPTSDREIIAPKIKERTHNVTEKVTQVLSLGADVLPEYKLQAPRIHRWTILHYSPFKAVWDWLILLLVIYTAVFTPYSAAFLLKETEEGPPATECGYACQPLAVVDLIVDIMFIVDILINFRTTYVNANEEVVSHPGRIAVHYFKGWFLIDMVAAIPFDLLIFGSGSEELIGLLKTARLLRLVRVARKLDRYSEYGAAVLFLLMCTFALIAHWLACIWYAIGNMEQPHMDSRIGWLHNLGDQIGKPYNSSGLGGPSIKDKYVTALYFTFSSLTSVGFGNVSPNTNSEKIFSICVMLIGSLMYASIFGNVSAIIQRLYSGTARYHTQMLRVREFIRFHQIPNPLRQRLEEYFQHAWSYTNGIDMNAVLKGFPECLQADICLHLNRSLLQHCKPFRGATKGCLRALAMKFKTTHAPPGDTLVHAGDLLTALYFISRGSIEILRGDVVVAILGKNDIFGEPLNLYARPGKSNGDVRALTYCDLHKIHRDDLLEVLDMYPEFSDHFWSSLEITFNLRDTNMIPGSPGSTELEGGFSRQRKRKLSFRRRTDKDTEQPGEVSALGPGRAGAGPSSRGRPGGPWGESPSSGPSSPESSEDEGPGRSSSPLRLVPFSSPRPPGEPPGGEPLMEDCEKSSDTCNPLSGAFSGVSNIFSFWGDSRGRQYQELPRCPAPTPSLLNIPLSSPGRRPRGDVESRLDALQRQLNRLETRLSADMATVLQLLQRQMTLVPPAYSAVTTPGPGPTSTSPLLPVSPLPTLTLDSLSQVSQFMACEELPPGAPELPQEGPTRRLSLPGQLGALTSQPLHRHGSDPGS

This assay concerns the target human ether-à-go-go-related gene (hERG) potassium channel (human, UniProt Q12809). Briefly: primary screen, population patch clamp on CHO cells stably expressing hERG.
Regarding `COCC1CCCN(Cc2nc(Cc3ccccc3)no2)C1` (centres unmarked), the “hERG current change (%, negative = inhibition) at 1uM” value is 11.6%.
Regarding `Cc1cc2oc(C(=O)N(Cc3ccccc3)C3CCS(=O)(=O)C3)c(C)c2cc1C` (centres unmarked), the “hERG current change (%, negative = inhibition) at 1uM” value is reported as 16.2%.
Then `Cc1noc(C)c1C(=O)NCc1ccco1`, with 7.86%.
Consider `CCOc1ccc(S(=O)(=O)NNC(=S)Nc2ccc(Br)cc2)cc1`, for which the “hERG current change (%, negative = inhibition) at 1uM” value is reported as 5.39%.
Regarding `Cc1cc(-c2ccc(C)c(S(=O)(=O)NCC3CCN(Cc4ccc(F)cc4)CC3)c2)on1`, the “hERG current change (%, negative = inhibition) at 1uM” value is recorded as -7.78%.
`c1ccc(C(Cc2nc(-c3ccncc3)no2)c2ccccc2)cc1`: the “hERG current change (%, negative = inhibition) at 1uM” value came to 12.5%.
Take `Cn1ccnc1Sc1nc2ccccc2nc1NS(=O)(=O)c1ccccc1`: the “hERG current change (%, negative = inhibition) at 1uM” value turned out to be 17.4%.
On to `Cc1[nH]c(=O)c(C#N)c(C)c1CCC(=O)NCc1cccc(C(F)(F)F)c1`, for which the “hERG current change (%, negative = inhibition) at 1uM” value was found to be 18.4%.
As for `O=C(CSc1nccc(=O)[nH]1)c1ccccc1Br`, the “hERG current change (%, negative = inhibition) at 1uM” value is listed as 4.66%.
Turning to `Cc1[nH]c(C)c(S(=O)(=O)N(Cc2ccccc2)C(C)C)c1C(=O)N1CCCC1`, the “hERG current change (%, negative = inhibition) at 1uM” value came out at 9.26%.
As to `O=C(CCNc1ccc(Br)cc1)c1cccc([N+](=O)[O-])c1`, the “hERG current change (%, negative = inhibition) at 1uM” value is 11.1%.
With `Cc1cccc(-n2c(Cc3cc(=O)[nH]c(=O)[nH]3)nnc2SCC(=O)N2CCc3ccccc32)c1`, the “hERG current change (%, negative = inhibition) at 1uM” value is on record as 4.78%.
Regarding `O=C(C(Cc1ccccc1)n1cccc1)N1CCc2ccccc21` (centres unmarked), the “hERG current change (%, negative = inhibition) at 1uM” value worked out at 8.86%.
Turning to `CSCCC(NC(=O)c1ccccc1)C(=O)N1CCCCCCC1` (centres unmarked), the “hERG current change (%, negative = inhibition) at 1uM” value is 5.59%.
With `CC1CCCCC12NC(=O)N(CC(=O)c1ccc3c(c1)OCO3)C2=O` (centres unmarked), the “hERG current change (%, negative = inhibition) at 1uM” value is recorded as -1.54%.
With `O=C(c1cccc(Oc2c(Cl)cccc2[N+](=O)[O-])c1)N1CCCCC1`, the “hERG current change (%, negative = inhibition) at 1uM” value was 10.5%.
As for `O=C(C(c1ccccc1)c1ccccc1)N(Cc1ccco1)C1CCS(=O)(=O)C1` (centres unmarked), the “hERG current change (%, negative = inhibition) at 1uM” value worked out at 10%.
Consider `N#C/C(=C\c1cccnc1)c1nc2ccccc2[nH]1`, for which the “hERG current change (%, negative = inhibition) at 1uM” value is on record as 13%.
Consider `CCC(=O)OCC(=O)N=c1sccn1Cc1ccc(C)cc1`, for which the “hERG current change (%, negative = inhibition) at 1uM” value is listed as 11.2%.
Then `CN1C(=S)N(c2ccccc2)C(=O)/C1=C/c1ccco1`, with 10.6%; and `CCOc1cc(C2NC(=O)NC2=O)ccc1O` (centres unmarked), with 17.3%; and `COCCCNC(=O)/C(C#N)=C/c1c(N2CCN(c3ccccc3)CC2)nc2ccccn2c1=O`, with 3.99%.
In the case of `CCCc1cc(CNC(=O)C2CCC(=O)N(Cc3ccccc3OC)C2)on1` (centres unmarked) it was 12.2%; in that of `CCOC(=O)CNc1nc(C(C)(C)C)nc2c1nnn2Cc1ccccc1Cl`, 9.99%.
In the case of `Cc1cnc(NC(=O)CC2CCCC2)s1` it was 14.3%.
Regarding `CC(=O)N1CCN(c2nc3ccc(Br)cc3s2)CC1`, the “hERG current change (%, negative = inhibition) at 1uM” value was -3.45%.
With `O=C(CCCn1cnc([N+](=O)[O-])n1)Nc1ccc(F)c(Cl)c1`, the “hERG current change (%, negative = inhibition) at 1uM” value is 9.69%.
In the case of `CC1CCCCC1NC(=O)c1cccc(N2C(=O)C3C4C=CC(C4)C3C2=O)c1` (centres unmarked) it was 11.8%; in that of `CC(C)(C)OC(=O)Nc1ccc([C@H](NC(=O)OC(C)(C)C)C(=O)OC(C)(C)C)cc1`, 10.1%; in that of `N#C/C(=C\c1ccc(O)c(Br)c1)C(=O)NCc1ccccc1`, 4.88%.
In the case of `COC(=O)c1c(C)nc2c(c(SC)nn2-c2ccccc2)c1N` it was 1.51%.
Then `CCOC(=O)c1c(C)[nH]c(NC(=O)Nc2c(C)n(C)n(-c3ccccc3)c2=O)c1C`, with 15.2%; and `CC(C)N1CCC(N2CCN(Cc3nc4ccccc4s3)CC2CCO)CC1` (centres unmarked), with 3.75%.
Take `Fc1ccc(NC(=S)Nc2ccc(F)c(Cl)c2)cc1Cl`: the “hERG current change (%, negative = inhibition) at 1uM” value is recorded as 7.52%.
For the compound `Cc1ccc(COc2ccc(/C=N/O)cc2)cc1`, the “hERG current change (%, negative = inhibition) at 1uM” value worked out at 11.5%.
Take `O=C(c1ccc(CS(=O)(=O)c2ccc(Br)cc2)o1)N1CCN(c2ccc(F)cc2)CC1`: the “hERG current change (%, negative = inhibition) at 1uM” value is 8.86%.
On to `O=C(O)c1ccccc1SCCS(=O)(=O)c1ccc(Cl)cc1Cl`, for which the “hERG current change (%, negative = inhibition) at 1uM” value is listed as -4.25%.
With `Cc1cccnc1NC(=O)C1c2ccccc2Oc2ccccc21`, the “hERG current change (%, negative = inhibition) at 1uM” value came to 0.998%.
In the case of `Cc1cc(S(=O)(=O)N2c3ccc(F)cc3CCC2C)ccc1-n1cnnn1` (centres unmarked), the “hERG current change (%, negative = inhibition) at 1uM” value came out at 3.04%.
In the case of `CCOC(=O)C1C(=O)C=C(/C=C/c2ccccc2)CC1c1ccc(Cl)cc1` (centres unmarked) it was -1.42%.
Consider `CC(C)OC(=O)c1ccc(COc2ccc3ccc(=O)oc3c2)o1`, for which the “hERG current change (%, negative = inhibition) at 1uM” value is on record as 3.2%.
As for `O=C(CSc1ccccn1)Nc1cccc2ccccc12`, the “hERG current change (%, negative = inhibition) at 1uM” value is 16.8%.
Take `COC(=O)CCSc1cc([N+](=O)[O-])cc2c1c(C1OCCS1)nn2-c1ccccc1` (centres unmarked): the “hERG current change (%, negative = inhibition) at 1uM” value is listed as 6.4%.
For the compound `OCCNC(=S)c1ccccc1`, the “hERG current change (%, negative = inhibition) at 1uM” value is 12.8%.
Then `N#Cc1ccccc1CSc1nc(N)cc(N)n1`, with 11.8%; and `CCNS(=O)(=O)c1c(C)cc(N2CCCC2=O)cc1C`, with 6.3%; and `Cc1ccc2nc(-c3ccc4c(c3)OCCO4)cn2c1`, with 15.7%.
In the case of `Cc1cccc(C(=O)NC(C(=O)Nc2cccc(S(=O)(=O)N3CCCC3)c2)C(C)C)c1` (centres unmarked) it was 12.1%.
In the case of `CCN(C(=O)Cn1cnc2c(nc3n2CCCCC3)c1=O)c1cccc(Cl)c1` it was 8.61%; in that of `O=S(=O)(N/N=C/c1ccc2c(c1)OCCO2)c1ccccc1`, -2.55%.
As to `Cc1nc2cc(-c3ccc(Cl)cc3)nn2c(C)c1CCC(=O)NC(C)c1ccc2c(c1)OCCO2` (centres unmarked), the “hERG current change (%, negative = inhibition) at 1uM” value is given as -2.05%.
`COc1ccc(/C=C2/SC(=S)N(CCCC(=O)N3CCN(C)CC3)C2=O)cc1`: the “hERG current change (%, negative = inhibition) at 1uM” value worked out at 10.7%.
Consider `Cc1ccc(C)c(N2CCN(S(=O)(=O)c3ccc4c(c3)CCN4C(=O)CCC(=O)O)CC2)c1`, for which the “hERG current change (%, negative = inhibition) at 1uM” value was 9.48%.
`O=C(N/N=C/c1ccc2c(c1)OCO2)c1cc(-c2ccccc2Cl)nc2ccccc12`: the “hERG current change (%, negative = inhibition) at 1uM” value stood at 10.2%.
As to `Cc1nc([N+](=O)[O-])c(C(=O)OCc2ccc(C#N)cc2)n1C`, the “hERG current change (%, negative = inhibition) at 1uM” value came out at 5.44%.
For the compound `CCS(=O)(=O)Nc1ccc(C2=NN(S(=O)(=O)c3ccc(F)cc3)C(c3ccco3)C2)cc1` (centres unmarked), the “hERG current change (%, negative = inhibition) at 1uM” value is -21%.
